Hit rate of the full screen: of about 150,000 compounds, about 540 (0.36%) showed an effect of 50% or more. The list shows a part of the results.
test system: Plasmodium falciparum; test: Primary screen in NF54 nanoGlo assay, in single point, at 2uM, 72h; a lower Z score goes with more inhibition; type: functional, Erythrocyte; details: timepoint 72 hour

| Structure (SMILES) | % Inhibition [%] | Z score |
| --- | --- | --- |
| COc1ccc(F)c(CN2CCC[C@@](O)(CN3CCN(C(C)=O)CC3)C2=O)c1 | 0 | -0.03 |
| O=C(c1ccc(S(=O)(=O)NCc2cccnc2)cc1)N1CC[C@H](O)C1 | -18 | 2.26 |
| CC(=O)N(C)[C@H](c1ccc2c(c1)OCO2)c1nnnn1-c1ccc(C)cc1 | 31 | -3.54 |
| CC(C)C(NC1CCCn2ccnc21)C(=O)N(C)Cc1nnc2n1CCC2 (stereo not given) | -18 | 2.72 |
| C[C@@H](C(=O)N(C)CCc1nccs1)n1nnnc1C(C)(C)C | -6 | 0.63 |
| Cc1nc(CNC(=O)N(C)Cc2noc(CC(C)C)n2)n[nH]1 | -9 | 1.27 |
| CC(C)c1nc2ccc(C(=O)NCCC3=CCCCC3)cc2o1 | -15 | 1.39 |
| CCC(=O)N1CCCCCCN(C)C(=O)[C@@H]2CCC[C@@H]21 | -2 | 0.34 |
| Cc1cc(C2OCCO2)c(C)cc1CN[C@@]1(C)CCOC1 | 10 | -2.01 |
| O=C(NCCc1cn2c(n1)CCCC2)c1cccnc1 | -1 | 0.23 |
| O=C1[C@@H](OC2CCN(S(=O)(=O)c3cc(Cl)ccc3Cl)CC2)CCN1CC1CC1 | -19 | 3.32 |
| C[C@H](NCc1ncc(Br)cc1Cl)c1ncn(C)n1 | 4 | -0.62 |
| CCc1nnc(CN(C)C(=O)c2cc3ccc(OC)cc3n2C)o1 | -9 | 1.29 |
| O=c1c(CNC2CCCC2)cc2ccc(Cl)cc2n1CCOc1ccccc1 | 2 | -0.3 |
| CC1CC(C(=O)O)CN(C(=O)c2noc(-c3cccc(F)c3)n2)C1 (stereo not given) | -7 | 1.09 |
| CC(C)C(=O)N1CCN(c2c(F)c(F)c(F)c(F)c2F)CC1 | -2 | 0.24 |
| O=C(NC1CC1)C1(F)CCN(Cc2ccncc2)CC1 | -10 | 1.25 |
| Cc1ccoc1CN(C)S(=O)(=O)C1(C)CC1 | -3 | 0.54 |
| O=C(C(=O)N1CCN(Cc2ccccc2)CC1)c1ccc[nH]1 | -13 | 1.25 |
| CCN(Cc1ccoc1)[C@@H](C)c1nc2ccccc2c(=O)[nH]1 | -15 | 1.52 |
| CCCN1CCN(Cc2cnn(CC)c2C)[C@H]2CS(=O)(=O)C[C@H]21 | -16 | 2.32 |
| O=C(CN1C(=O)c2ccccc2C1=O)NOCc1ccccc1 | -12 | 1.56 |

| Structure (SMILES) | % Inhibition [%] | Z score |
| --- | --- | --- |
| CCOC[C@@H](O)CN(Cc1c(-c2ccccc2)nn(C)c1Oc1ccccc1)C1CC1 | 2 | -0.17 |
| O=C(Nc1cccc(-c2ccc(N3CCCCC3)nn2)c1)c1ccco1 | -6 | 0.82 |
| O=C1CN(C(=O)[C@H]2CC[C@H](Cn3c(=O)[nH]c4ccccc4c3=O)CC2)CCN1 | -3 | 0.58 |
| Cc1ncc(-c2cc(-c3ccc4c(c3)OCO4)nc(N)c2C#N)n1C | -20 | 2.02 |
| CC1CCCN(C(C(=O)NC2CCCC2)c2ccc(Cl)cc2)C1 (stereo not given) | 6 | -0.9 |
| Cn1cccc(C(=O)N2CCC(Oc3nncs3)CC2)c1=O | 22 | -2.82 |
| COc1cccc(-c2noc(N3CC4CCC3C4)n2)c1 (stereo not given) | -5 | 0.73 |
| CCn1cc(Br)cc1C(=O)[C@H](C#N)C(=O)NC | -3 | 0.32 |
| CN(Cc1nnc2n1CCC2)C(=O)[C@@H]1CC=CCC1 | 1 | -0.18 |
| Cc1cc(CNC(=O)c2[nH]nc(C)c2Cl)on1 | 3 | -0.31 |
| CCn1ccnc1C(=O)Nc1ccc(Oc2ccnc3ccccc23)cc1 | 4 | -0.52 |
| COC(=O)[C@H](Cc1ccc(OC)cc1)NC(=O)[C@H]1CN(C(=O)c2cccnc2)CCN1C(=O)NC(C)C | -2 | 0.27 |
| O=C(NCC(F)(F)F)N1CCC12CCC2 | 7 | -1.1 |
| CCNC(=O)c1cc(N(C)S(C)(=O)=O)ccc1Cl | -7 | 1.2 |
| CN1CCN([C@H]2CN(Cc3ccccc3OC(F)(F)F)C[C@@H]2O)CC1 | 0 | 0.07 |
| CNC(=O)c1nc(-c2ccccc2)n2c1CCN(C(=O)c1ccccc1)CC2 | 0 | 0.01 |
| N#Cc1ccc(C(=O)N[C@H]2CCCc3c2cnn3-c2ccccn2)cc1 | 38 | -5.52 |
| Cc1cnc(C(=O)NC2CCCCCCC2)cn1 | 18 | -2.33 |
| Cc1cc(N2CCN(C(=O)c3ccc(F)cc3)CC2)nc(-c2cccc(F)c2)n1 | 1 | -0.13 |
| CCCOc1ccc(-c2ccc(C(=O)N[C@H]3CCNC3=O)cc2)cc1CO | -7 | 1.45 |
| C[C@@H](c1ccccc1)N1c2nonc2C(N)=C(N)c2nonc21 | -7 | 0.78 |
| CC[C@@H](CO)NC(=O)c1c(OC)cccc1OC | -9 | 1.79 |

| Structure (SMILES) | % Inhibition [%] | Z score |
| --- | --- | --- |
| Cn1nc(C(=O)O)c2c1CCN(Cc1cc(CN3CCCCC3)cs1)C2 | 6 | -0.79 |
| COc1ccc2c(c1)CC[C@H](C(=O)Nc1ccc(C(=O)O)nc1)C2 | 6 | -0.98 |
| O=C1CCCN1c1cccc(NCc2nccs2)c1 | -6 | 0.73 |
| Cc1nnsc1CNC(=O)c1cccc(CN2CCCCCC2)c1 | -3 | 0.39 |
| O=C(CN[C@H](c1ccccc1)c1cccs1)NC1CCN(Cc2ccccc2)CC1 | 2 | -0.26 |
| CC1(C)OCc2cc(CNc3ccc4oc(=O)[nH]c4c3)ccc2O1 | 96 | -13.84 |
| O=C(NC1CCCCC1)[C@@H]1CCCCC(=O)N1Cc1ccccc1 | -9 | 1.02 |
| CCc1cc(N(C)CC2(CO)CCCC2)ncn1 | -14 | 1.28 |
| O=C(c1ccco1)N1CCC2(CC1)C[C@@H](Cc1cccc(F)c1)CCO2 | -7 | 0.9 |
| O=C(Cn1nc2c(N3CCCCCC3)nccn2c1=O)NCc1ccccc1 | -18 | 1.76 |
| CC[C@H](C)NS(=O)(=O)c1ccc(C)cc1C | 36 | -3.01 |
| O=C1N[C@H]2C[C@@H](C(=O)NC[C@@H]3CCC[C@@H](CCOc4ccccc41)O3)N(C1CCC(F)(F)CC1)C2 | 34 | -3.88 |
| CN1C[C@@H]2CC[C@H](CC1=O)N2S(=O)(=O)c1ccc(-n2cccn2)cc1 | -9 | 0.86 |
| CC1CCCCC1CC(=O)N1CCC[C@H](CO)[C@@H]1CO (stereo not given in full) | 12 | -1.58 |
| CN(C)[C@@H](CNC(=O)c1cccc(NS(=O)(=O)c2ccc3c(c2)OCCO3)c1)c1ccsc1 | -12 | 1.13 |
| Cn1ncc(CNC(=O)Cc2ccc(C3CCC3)cc2)n1 | -16 | 2.1 |
| Cc1ccc([C@H](CNC(=O)Cc2ccc(=O)[nH]c2)N2CCCC2)o1 | -13 | 1.64 |
| CC1=CCCC(C)C1CNCc1nc(N(C)C)no1 (stereo not given) | -8 | 1.27 |
| COc1cccc(-c2nc(NC3CCCCC3C)c3ccccc3n2)c1O (stereo not given) | -10 | 1.04 |
| O=C(Nc1ccccc1N1CCCC1)c1cc(Cl)c[nH]1 | -7 | 1.3 |
| O=C([C@H]1CCCN(C2CCN(Cc3cccnc3)CC2)C1)N1CCCCCC1 | -2 | 0.33 |
| O=C(OCCCF)N1CCC(O)(Cc2ccccn2)CC1 | -10 | 1.35 |

| Structure (SMILES) | % Inhibition [%] | Z score |
| --- | --- | --- |
| COc1ncccc1CNC(=O)[C@H]1CCc2[nH]c(C)nc2C1 | -10 | 1.71 |
| O=C(Nc1cccc(S(=O)(=O)N2CCOCC2)c1)C1CC2CCC1C2 (stereo not given) | 2 | -0.29 |
| Cc1cccc(NC(=O)c2ccc3c(c2)C(=O)N(c2ccccn2)C3=O)c1C | 6 | -0.78 |
| CCn1c(=O)c(-c2noc(CCC(=O)O)n2)nn(-c2ccc(Cl)cc2)c1=O | -3 | 0.41 |
| COC(=O)C[C@H](N)c1ccc(Cl)c(F)c1 | 1 | -0.08 |
| O=C(NCCC(c1ccccc1)c1ccccc1)c1nc(-c2cnccn2)no1 | -4 | 0.58 |
| COc1cccc(CC(=O)N2CCC[C@H](n3c(C)cnc3C3CCOCC3)C2)c1 | 7 | -0.89 |
| Cc1nnc(CN2CCC[C@]3(C4=CCOCC4)COCC[C@@H]23)s1 | -6 | 1.04 |
| C[C@@]1(C(=O)N2CC(c3ccccn3)C2)CCCCO1 | 1 | -0.09 |
| CN1CCCC[C@@H]1CCC(=O)N1CCN(CCc2ccccc2)C(=O)C1 | 3 | -0.41 |
| C=CCONC1CCCCC1NOCC=C (stereo not given) | -7 | 1.4 |
| O=C(C#Cc1ccc(C(F)(F)F)cc1)NCC1(CO)CCC1 | 36 | -1.15 |
| COCCN(Cc1scnc1C)C(=O)c1c(C)nn(C)c1C | -2 | 0.22 |
| CCCCN1C(=O)CC[C@@H]2CN(C(=O)c3onc4c3CCCC4)CC[C@@H]21 | -3 | 0.66 |
| CN1CCN(C(=O)[C@@H]2CCCN2C(=O)CCc2ccc(S(=O)(=O)N3CCCC3)cc2)CC1 | -18 | 1.61 |
| CC(=O)N1CC(Nc2nc3ccccc3o2)C1 | -10 | 1.28 |
| COc1ccc(CN2CCN(c3ccc(NC(=O)c4ccc(C(C)(C)C)cc4)cn3)CC2)c(OC)c1OC | -5 | 0.84 |
| COc1ccccc1CCNC1CCN(c2ccc(F)c(F)c2)CC1 | -4 | 0.59 |
| CCc1cccc(C)c1NC(=O)Cn1nc2ccc(C(=O)NCc3ccccc3)cn2c1=O | -15 | 1.31 |

Reference: ChEMBL document CHEMBL4888484, “Replenishing the malaria drug discovery pipeline: Screening and hit evaluation of the MMV Hit Generation Library 1 (HGL1) against asexual blood stage Plasmodium falciparum ,using a nano luciferase reporter read-out” (2022)
